For experiment [1], the target named is T1, Rab4 (endogenous, melanocytes) (mouse (endogenous in melan-Ink melanocytes)) (UniProt P56371).
T1 sequence: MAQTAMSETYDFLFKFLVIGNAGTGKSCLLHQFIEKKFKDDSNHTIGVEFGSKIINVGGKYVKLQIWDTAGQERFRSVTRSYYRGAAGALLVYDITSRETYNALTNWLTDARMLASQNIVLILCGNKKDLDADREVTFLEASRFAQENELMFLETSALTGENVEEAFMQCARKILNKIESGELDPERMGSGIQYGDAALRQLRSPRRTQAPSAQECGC
The experiment in a line: co-IP; endogenous Rab4 from melan-Ink melanocyte lysate, anti-Rab4 antibody and Protein G–Sepharose 4B beads overnight at 4°C; immunoblotting. On the technique in general: In western blotting, separated proteins are transferred to a membrane and probed.

Protein sequences, listed by entry. Tags and fused reporters are not part of them.
UniProt Q96T51: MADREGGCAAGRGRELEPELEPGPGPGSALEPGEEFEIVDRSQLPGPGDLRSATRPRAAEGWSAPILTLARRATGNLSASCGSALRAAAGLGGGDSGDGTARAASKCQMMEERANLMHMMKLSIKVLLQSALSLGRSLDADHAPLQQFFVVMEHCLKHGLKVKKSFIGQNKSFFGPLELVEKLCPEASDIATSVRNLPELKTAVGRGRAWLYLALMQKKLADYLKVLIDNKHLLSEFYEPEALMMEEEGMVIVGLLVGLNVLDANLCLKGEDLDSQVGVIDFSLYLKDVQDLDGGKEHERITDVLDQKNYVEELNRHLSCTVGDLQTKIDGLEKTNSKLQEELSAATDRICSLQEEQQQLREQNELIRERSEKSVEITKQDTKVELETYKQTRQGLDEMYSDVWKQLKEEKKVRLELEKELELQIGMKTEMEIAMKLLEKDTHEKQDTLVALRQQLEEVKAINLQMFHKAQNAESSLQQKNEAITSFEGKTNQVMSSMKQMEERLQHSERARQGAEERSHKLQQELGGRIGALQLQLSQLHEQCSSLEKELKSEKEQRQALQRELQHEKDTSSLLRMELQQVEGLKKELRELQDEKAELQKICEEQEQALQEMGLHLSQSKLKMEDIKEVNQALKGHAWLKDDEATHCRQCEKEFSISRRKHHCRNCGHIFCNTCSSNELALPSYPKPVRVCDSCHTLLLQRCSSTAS
UniProt Q9Y496: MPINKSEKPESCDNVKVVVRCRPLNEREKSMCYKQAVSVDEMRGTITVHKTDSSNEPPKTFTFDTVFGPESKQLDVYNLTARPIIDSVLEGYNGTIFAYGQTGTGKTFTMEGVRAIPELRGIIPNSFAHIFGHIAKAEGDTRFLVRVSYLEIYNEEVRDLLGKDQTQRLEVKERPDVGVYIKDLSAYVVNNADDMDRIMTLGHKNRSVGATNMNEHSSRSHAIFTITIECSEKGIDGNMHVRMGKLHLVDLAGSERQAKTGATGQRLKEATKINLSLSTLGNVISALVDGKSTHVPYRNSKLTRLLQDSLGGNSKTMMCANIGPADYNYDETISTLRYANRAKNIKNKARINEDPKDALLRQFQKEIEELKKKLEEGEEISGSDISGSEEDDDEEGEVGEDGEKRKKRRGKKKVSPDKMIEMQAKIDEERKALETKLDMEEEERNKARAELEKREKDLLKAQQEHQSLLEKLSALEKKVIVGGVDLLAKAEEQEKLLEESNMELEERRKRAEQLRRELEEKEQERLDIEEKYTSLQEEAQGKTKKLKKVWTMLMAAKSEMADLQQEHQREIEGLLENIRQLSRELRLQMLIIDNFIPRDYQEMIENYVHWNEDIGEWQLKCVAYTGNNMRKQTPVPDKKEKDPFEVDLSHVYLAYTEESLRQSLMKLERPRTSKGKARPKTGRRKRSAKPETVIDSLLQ
UniProt P28741: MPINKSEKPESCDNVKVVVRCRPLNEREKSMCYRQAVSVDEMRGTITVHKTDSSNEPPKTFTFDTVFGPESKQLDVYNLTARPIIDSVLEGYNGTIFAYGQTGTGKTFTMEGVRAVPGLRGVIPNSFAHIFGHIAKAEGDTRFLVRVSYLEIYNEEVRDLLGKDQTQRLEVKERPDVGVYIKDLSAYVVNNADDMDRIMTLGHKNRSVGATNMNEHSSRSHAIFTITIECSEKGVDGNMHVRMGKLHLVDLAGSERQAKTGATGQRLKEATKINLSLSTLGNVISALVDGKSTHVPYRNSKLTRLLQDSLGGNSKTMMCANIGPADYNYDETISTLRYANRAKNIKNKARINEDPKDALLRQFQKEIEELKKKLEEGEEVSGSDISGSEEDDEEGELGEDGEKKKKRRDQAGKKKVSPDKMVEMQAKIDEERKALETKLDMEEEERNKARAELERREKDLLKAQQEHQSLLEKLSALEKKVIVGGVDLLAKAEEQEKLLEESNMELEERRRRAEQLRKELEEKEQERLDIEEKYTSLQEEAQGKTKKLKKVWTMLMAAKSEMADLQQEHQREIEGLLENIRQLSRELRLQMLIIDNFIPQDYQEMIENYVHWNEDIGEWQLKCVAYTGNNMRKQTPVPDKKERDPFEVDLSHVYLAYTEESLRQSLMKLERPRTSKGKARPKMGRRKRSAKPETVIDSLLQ

The next experiment concerns the target T2, GFP–rabenosyn-5 (UniProt Q9H1K0).
T2 sequence: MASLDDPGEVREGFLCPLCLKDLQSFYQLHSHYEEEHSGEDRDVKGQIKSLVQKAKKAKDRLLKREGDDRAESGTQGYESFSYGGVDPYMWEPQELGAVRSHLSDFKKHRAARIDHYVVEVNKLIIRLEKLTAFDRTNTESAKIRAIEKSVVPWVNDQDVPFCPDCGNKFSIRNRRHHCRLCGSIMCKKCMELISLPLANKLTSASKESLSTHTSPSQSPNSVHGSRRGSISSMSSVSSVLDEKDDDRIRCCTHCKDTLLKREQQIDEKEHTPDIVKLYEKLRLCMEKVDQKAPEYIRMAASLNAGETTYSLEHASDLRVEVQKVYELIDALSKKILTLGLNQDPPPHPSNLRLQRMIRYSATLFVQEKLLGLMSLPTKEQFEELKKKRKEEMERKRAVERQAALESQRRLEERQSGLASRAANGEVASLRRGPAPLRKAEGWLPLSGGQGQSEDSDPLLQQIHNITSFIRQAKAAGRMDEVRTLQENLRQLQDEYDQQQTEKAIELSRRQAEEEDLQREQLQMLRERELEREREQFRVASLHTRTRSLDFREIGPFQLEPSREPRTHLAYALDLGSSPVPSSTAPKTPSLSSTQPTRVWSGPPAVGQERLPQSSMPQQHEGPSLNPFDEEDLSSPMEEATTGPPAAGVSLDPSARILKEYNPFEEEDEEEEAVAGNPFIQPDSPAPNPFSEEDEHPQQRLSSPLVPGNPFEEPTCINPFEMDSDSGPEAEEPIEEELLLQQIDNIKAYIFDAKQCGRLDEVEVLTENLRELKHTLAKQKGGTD
Briefly: co-IP; GFP-tagged bait expressed in HeLa cells, lysate (20 mM HEPES pH7.4, 100 mM KCl, 10 mM MgCl2, 5 mM EDTA, 1% Triton X-100, 100 µM GTPγS) on GFP-Trap_A beads 4–5 h at 4°C; immunoblotting of endogenous partners.

The target of the next experiment is GFP–Rabip4′ (UniProt Q96T51). The description is as above.
For another experiment, the target named is Myc–KIF3A (UniProt Q9Y496). The experiment in a line: co-IP; Myc-tagged bait expressed in HeLa cells, anti-Myc antibody and Protein G–Sepharose 4B beads overnight at 4°C; immunoblotting of endogenous partners.

Results are given in words; binding and its absence hold for the method and conditions named. In cells and extracts the contact can be indirect. Some binding calls cover weakened binding; strength is not graded here. For some of these results: Where a sequence is shown, tags or fusion partners need not be part of it.

Take “KIF3A (endogenous, melanocytes) (from UniProt P28741 1-701)”: in experiment [1], the binding entry is on record as “binds”.

On to “KIF3A (endogenous, HeLa) (from UniProt Q9Y496 1-699)”, for which the binding entry is given as “binds” with GFP–rabenosyn-5 and “no binding” in the experiment with GFP–Rabip4′.

Take “Rabip4/4′ (endogenous, HeLa) (from UniProt Q96T51 1-708)”: the binding result with Myc–KIF3A is listed as “no binding”.

For the origin of these results see publication PMC6151265.
